The source gives no read counts; variants with many changes may rest on few reads.
B1: LINE1-mini (parent)
chain: GGCAGAGCUCAACACAGCGUGGCAAAGUGGCUGUGGCUAGACUGCC

Variants of: B1
Assay: self-cleavage, relative activity (ratio to wild type); higher = more cleavage; in vitro, sequencing; the parent is a self-cleaving ribozyme

Variant	self-cleavage
C10A G17C A25U	0.03
C10A C18A G36C	0.01
C10A G33U A41U	0.06
C10G G22A U28A G29A	0.09
C10G A16G G22U A26U	0.02
C10G A12C G22C G29A	0
C10A G22A C23A G29U C46A	0.01
C10A G19U C31G	0
C10A U20G C46A	0.04
C10A A16C G30U	0.01
C10G A11G U34C C45U	0.02
C10G G21C G27C G35U	0.01
C10A C13A U34C	0.02
C10A A12G A25U G27A	0
C10A C23U A39G G40C C45A	0.01
C10G C15U G17A C18A A26U U28G U32A	0.01
C10G C18A C37U	0.01
C10G A11U G19A G33A	0.02
C10A U28C U34C	0.07
C10A A12G G30A	0.01
C10A A26U C46U	0.03
C10G C31G G33U	0
C10G A11C G35A G36U	0.01
C10A C18A G36A G40A	0.03

Variant	self-cleavage
C10G G27U G35C A39U	0
C10G A16C G21A G33C G40A	0.01
C10A U20A A24G	0.01
C10A C15A A16G G17C U38C	0.04
C10A U20C G29C U34C	0.02
C10A G29U G44U C46U	0.04
C10A C18U U28C G36U	0
C10G C15A U20G U34C G44C	0
C10G C42A C45A	0.01
C10A G19A U28G U34A	0.01
C10A G33C A39U	0.02
C10A C15U C42G	0.02
C10A A12U G22C G36A U38A	0
C10G C13U A24G G27A G36A U43A	0.01
C10A A16G U20A	0.01
C10A C13U C46U	0.02
C10G A26C G27C U32C G33U U43A C45A	0
C10A U34A G40C	0.02
C10A A24G G36U	0.02
C10A G17C G29A A41U	0.01
C10A C13A A26C A39C	0.02
C10A G21U C45A	0.02
C10A A12G G21U	0.01
C10A G19C A26C G44A	0.01

Variant	self-cleavage
C10G G19A G35A	0.06
C10G G19C A24G G30U	0.01
C10G C23A A26C C31A	0.04
C10A A14C G21A G22A	0.02
C10G C23G A24C G44A	0.03
C10A A14C G17U G21U	0.03
C10G G17A G40A C42U	0.02
C10A A12G C18U G36U	0
C10A U20C G40C C46G	0
C10A U32C G44C	0.01
C10G C15G A25C	0.03
C10A G22A G33C	0.02
C10A G40U A41U	0.01
C10A G21C G36C	0.01
C10G C18G U20G G21U	0.06
C10A G36U C37A	0.01
C10A A14G G21A	0.04
C10G A16U U20G C37A	0.02
C10A A25C G29U G33U	0
C10A A12C G17C C45U	0.02
C10A C13U G33U C42G	0.02
C10G C15A U20C A39G	0.01
C10A A11G G27U	0.04
C10A A11U A14U	0

Variant	self-cleavage
C10A A24C A26G	0.03
C10A A11G A14C G30A G36A U38G A41G	0
C10A C31A A39U	0.01
C10A G35U A39G	0.05
C10A G19A G21A C23U U32A A41C	0
C10A C31A C37U	0.01
C10A C13A A39U C46A	0.01
C10G G17U U28A G33U	0.01
C10G A11G G29A	0.01
C10G C15G U34C	0.02
C10G G27A G30C	0.06
C10A A24G G40A G44C	0.01
C10A G40A C45G	0.02
C10A G35C G36C U38C	0
C10A G21U G30U G33C	0.1
C10G A12C G17C A41G	0.01
C10A A12U G19A	0.01
C10A G27U U28A G36U	0.01
C10A C15U G19C C42U	0.05
C10G C15U G30C	0.01
C10G A14C C23U	0.01
C10A A11C A25C G27C	0.02
C10A G17C G22A G40A U43A	0.03
C10A G30U U38A	0.06

Variant	self-cleavage
C10A G19U G22A A39G	0.01
C10G C23G G29A C31A	0.15
C10G A11U A24C G35U A39C	0
C10G G27U G40C U43A	0
C10G G22U G27A	0.08
C10G A25U U34A	0.02
C10A A16U A41C	0.02
C10A G17A G27C	0.05
C10A A41C C42G	0.02
U9G U32G A39U	0.02
C10G A14U A16C A25C G27A U43C	0
C10A G17A U20A	0.02
C10A C18U C23U G35C A41C	0.01
C10A G22C C23A G36U	0.02
C10A G36C C42A	0
C10A C18A G27C	0.02
U9G U20G G21U	0.04
U9G U20G G21A	0.03
C10A C15U U38C A41C	0.01
C10G A14U A41C	0
C10A G21U G44U	0.08
C10G A12C A14G G27A C37G	0
C10A A16U G19A U32A	0.02
C10A U38A A41C C45U	0.04

Variant	self-cleavage
C10A A24C A41U G44A	0.01
C10G C15U U28G C31A U34G A41U	0
C10A C13A A26U C45U	0
C10G G22C A41U C46A	0
C10G G17A G21U	0.21
C10G A16U C23G U32A C42U U43G	0.01
C10A G17A G22C A25C	0.02
C10A U38G A39U	0.06
C10A U28C U32A G36U	0
U9G U34G A39U	0.02
C10G A11G C42U	0.08
C10G C15G G19U	0.03
C10G G17U G40A	0.04
C10A G30A G40C C46U	0.01
C10A G19U G29C	0.04
C10A U20A A39G	0.02
C10G A14U G19C A26C	0.04
C10A G22A U34A C46A	0.03
C10A A14G G17C C37G	0
C10A A14G C23G	0.02
C10A A12C C13G U34G G44U	0.01
C10G C23G G35C	0.02
C10G G19C G27A U32G U34A C46U	0.01
C10A A16C C18U A26C	0.03

Variant	self-cleavage
C10A G21A C23G A24C	0.02
C10A A24C C31A	0.03
C10A A12G A16G G29U	0
C10A G17U C23A G33C	0.01
C10G A25C C42A G44A	0.02
C10G A11U G30U U34G G44A	0.02
C10G A12U U28G U32G	0.04
C10G C15A G19U C37G	0.01
C10G G17A G33C	0.04
C10A A12U A16C	0
C10A C15A G29C A41C	0
C10G A16G U38C C42U	0
C10A A12G G22A G30U C31G U34G G40A	0
C10G G27A C31A G33C	0.02
C10A A25G G33U	0.03
C10A A11G G44U	0
C10G G19A G33U	0.01
C10A A12C U43C	0.01
C10A G17U A26C A41G	0
C10G A11G A39C C46A	0.01
C10G A16C G17U U34G C45G	0
C10A G17A G33U U34C	0.01
C10G C13G G21U	0.03

Reference: the RNAGym collection of RNA variant scans (doi:10.7554/elife.90254)
